Laboratory results reported in the supplement of paper PMC8728848.
This is one part of the list.

Tests used:
Test in all cases: glycan array binding signal (z-score within array); higher = stronger binding
Conditions in all cases: glycan notation: IUPAC condensed, linker removed
Fuc(a1-2)Gal = molecular target: Fuc(a1-2)Gal
How it was run: (§1)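 The binding signal is a Z-score computed within each array and averaged over linkers. Arrays of the same protein sequence at different concentrations or buffers were also averaged together. Data originate from 3228 arrays in the Consortium for Functional Glycomics database, kept only where the protein sequence was available.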

Fuc(a1-2)Gal(b1-3)GalNAc = molecular target: Fuc(a1-2)Gal(b1-3)GalNAc
How it was run: as §1

[1] = molecular target: Fuc(a1-2)Gal(b1-3)GalNAc(a1-3)[Fuc(a1-2)]Gal(b1-4)Glc
How it was run: as §1

[2] = molecular target: Fuc(a1-2)Gal(b1-3)GalNAc(a1-3)[Fuc(a1-2)]Gal(b1-4)GlcNAc
How it was run: as §1

[3] = molecular target: Fuc(a1-2)Gal(b1-3)GalNAc(b1-3)Gal
How it was run: as §1

[4] = molecular target: Fuc(a1-2)Gal(b1-3)GalNAc(b1-3)Gal(a1-4)Gal(b1-4)Glc
How it was run: as §1

[5] = molecular target: Fuc(a1-2)Gal(b1-3)GalNAc(b1-4)[Neu5Ac(a2-3)]Gal(b1-4)Glc
How it was run: as §1

Fuc(a1-2)Gal(b1-3)GlcNAc = molecular target: Fuc(a1-2)Gal(b1-3)GlcNAc
How it was run: as §1

[6] = molecular target: Fuc(a1-2)Gal(b1-3)GlcNAc(b1-2)Man(a1-3)[Fuc(a1-2)Gal(b1-3)GlcNAc(b1-2)Man(a1-6)]Man(b1-4)GlcNAc(b1-4)GlcNAc
How it was run: as §1

[7] = molecular target: Fuc(a1-2)Gal(b1-3)GlcNAc(b1-2)Man(a1-3)[Fuc(a1-2)Gal(b1-3)GlcNAc(b1-2)Man(a1-6)]Man(b1-4)GlcNAc(b1-4)[Fuc(a1-6)]GlcNAc
How it was run: as §1

[8] = molecular target: Fuc(a1-2)Gal(b1-3)GlcNAc(b1-3)Gal(b1-4)Glc
How it was run: as §1

[9] = molecular target: Fuc(a1-2)Gal(b1-3)GlcNAc(b1-3)GalNAc
How it was run: as §1

[10] = molecular target: Fuc(a1-2)Gal(b1-3)GlcNAc(b1-3)[Fuc(a1-3)[Gal(b1-4)]GlcNAc(b1-6)]Gal(b1-4)Glc
How it was run: as §1

[11] = molecular target: Fuc(a1-2)Gal(b1-3)GlcNAc(b1-3)[Gal(b1-4)GlcNAc(b1-6)]Gal(b1-4)Glc
How it was run: as §1

[12] = molecular target: Fuc(a1-2)Gal(b1-3)[Fuc(a1-4)]GlcNAc
How it was run: as §1

[13] = molecular target: Fuc(a1-2)Gal(b1-3)[Fuc(a1-4)]GlcNAc(b1-2)Man(a1-3)[Fuc(a1-2)Gal(b1-3)[Fuc(a1-4)]GlcNAc(b1-2)Man(a1-6)]Man(b1-4)GlcNAc(b1-4)GlcNAc
How it was run: as §1

[14] = molecular target: Fuc(a1-2)Gal(b1-3)[Fuc(a1-4)]GlcNAc(b1-3)[Fuc(a1-3)[Gal(b1-4)]GlcNAc(b1-6)]Gal(b1-4)Glc
How it was run: as §1

[15] = molecular target: Fuc(a1-2)Gal(b1-3)[Fuc(a1-4)]GlcNAc(b1-3)[Gal(b1-4)GlcNAc(b1-6)]Gal(b1-4)Glc
How it was run: as §1

Fuc(a1-2)Gal(b1-4)Glc = molecular target: Fuc(a1-2)Gal(b1-4)Glc
How it was run: as §1

Fuc(a1-2)Gal(b1-4)Glc6S = molecular target: Fuc(a1-2)Gal(b1-4)Glc6S
How it was run: as §1

Fuc(a1-2)Gal(b1-4)GlcNAc = molecular target: Fuc(a1-2)Gal(b1-4)GlcNAc
How it was run: as §1

[16] = molecular target: Fuc(a1-2)Gal(b1-4)GlcNAc(b1-2)Man(a1-3)[Fuc(a1-2)Gal(b1-4)GlcNAc(b1-2)Man(a1-6)]Man(b1-4)GlcNAc(b1-4)GlcNAc
How it was run: as §1

[17] = molecular target: Fuc(a1-2)Gal(b1-4)GlcNAc(b1-2)Man(a1-3)[Fuc(a1-2)Gal(b1-4)GlcNAc(b1-2)Man(a1-6)]Man(b1-4)GlcNAc(b1-4)[Fuc(a1-6)]GlcNAc
How it was run: as §1

[18] = molecular target: Fuc(a1-2)Gal(b1-4)GlcNAc(b1-2)[Fuc(a1-2)Gal(b1-4)GlcNAc(b1-4)]Man(a1-3)[Fuc(a1-2)Gal(b1-4)GlcNAc(b1-2)Man(a1-6)]Man(b1-4)GlcNAc(b1-4)GlcNAc
How it was run: as §1

[19] = molecular target: Fuc(a1-2)Gal(b1-4)GlcNAc(b1-3)Gal(b1-4)GlcNAc
How it was run: as §1

[20] = molecular target: Fuc(a1-2)Gal(b1-4)GlcNAc(b1-3)Gal(b1-4)GlcNAc(b1-3)Gal(b1-4)GlcNAc
How it was run: as §1

[21] = molecular target: Fuc(a1-2)Gal(b1-4)GlcNAc(b1-3)GalNAc
How it was run: as §1

[22] = molecular target: Fuc(a1-2)Gal(b1-4)GlcNAc6S
How it was run: as §1

[23] = molecular target: Fuc(a1-2)Gal(b1-4)[Fuc(a1-3)]GlcNAc
How it was run: as §1

[24] = molecular target: Fuc(a1-2)Gal(b1-4)[Fuc(a1-3)]GlcNAc(b1-2)Man(a1-3)[Fuc(a1-2)Gal(b1-4)[Fuc(a1-3)]GlcNAc(b1-2)Man(a1-6)]Man(b1-4)GlcNAc(b1-4)GlcNAc
How it was run: as §1

B1: Tap1 (Sordaria macrospora), Q50IV4 (protein)
chain: MSHHHHHHHHYTLHLRLINDTSDTLTLVEQTSWWGKNTIWSQVRSTGVHVLSMAASGSSGMLRFQTSKGDFFAVAVGVHNYKRWCDVLVDTADEAPLTKLHPKYYDDKDAKYQALWAQASEFEAKSKSGKTVRIKFYQADGNVLRATVEYL
Question: With B1 as the binder, how does the “glycan array binding signal (z-score)” value (Fuc(a1-2)Gal) read?
Answer: -0.239

Question: What about the “glycan array binding signal (z-score)” value (Fuc(a1-2)Gal(b1-3)GalNAc) of the same binder?
Answer: 2.96

Question: What about the “glycan array binding signal (z-score)” value [1] of the same binder?
Answer: -0.201

Question: What about the “glycan array binding signal (z-score)” value [2] of the same binder?
Answer: -0.05

Question: And the “glycan array binding signal (z-score)” value [3]?
Answer: -0.225

Question: And the “glycan array binding signal (z-score)” value [4]?
Answer: -0.242

Question: And the “glycan array binding signal (z-score)” value [5]?
Answer: -0.238

Question: What about the “glycan array binding signal (z-score)” value (Fuc(a1-2)Gal(b1-3)GlcNAc) of the same binder?
Answer: -0.217

Question: And the “glycan array binding signal (z-score)” value [6]?
Answer: -0.216

Question: What about the “glycan array binding signal (z-score)” value [7] of the same binder?
Answer: -0.214

Question: What about the “glycan array binding signal (z-score)” value [8] of the same binder?
Answer: -0.228

Question: What about the “glycan array binding signal (z-score)” value [9] of the same binder?
Answer: -0.226

Question: And the “glycan array binding signal (z-score)” value [10]?
Answer: -0.237

Question: And the “glycan array binding signal (z-score)” value [11]?
Answer: -0.239

Question: And the “glycan array binding signal (z-score)” value [12]?
Answer: -0.245

Question: And the “glycan array binding signal (z-score)” value [13]?
Answer: -0.135

Question: And the “glycan array binding signal (z-score)” value [14]?
Answer: -0.253

Question: What about the “glycan array binding signal (z-score)” value [15] of the same binder?
Answer: -0.228

Question: What about the “glycan array binding signal (z-score)” value (Fuc(a1-2)Gal(b1-4)Glc) of the same binder?
Answer: -0.197

Question: And the “glycan array binding signal (z-score)” value (Fuc(a1-2)Gal(b1-4)Glc6S)?
Answer: -0.216

Question: What about the “glycan array binding signal (z-score)” value (Fuc(a1-2)Gal(b1-4)GlcNAc) of the same binder?
Answer: -0.234

Question: What about the “glycan array binding signal (z-score)” value [16] of the same binder?
Answer: -0.207

Question: What about the “glycan array binding signal (z-score)” value [17] of the same binder?
Answer: -0.24

Question: What about the “glycan array binding signal (z-score)” value [18] of the same binder?
Answer: -0.23

Question: And the “glycan array binding signal (z-score)” value [19]?
Answer: -0.245

Question: And the “glycan array binding signal (z-score)” value [20]?
Answer: -0.223

Question: And the “glycan array binding signal (z-score)” value [21]?
Answer: 0.239

Question: What about the “glycan array binding signal (z-score)” value [22] of the same binder?
Answer: -0.228

Question: What about the “glycan array binding signal (z-score)” value [23] of the same binder?
Answer: -0.237

Question: And the “glycan array binding signal (z-score)” value [24]?
Answer: -0.035
